Results taken from patent publication US20210009671A1 (AstraZeneca / MedImmune, published 2021).

Legend:
[1] = target: Recombinant human NGF (Sigma) (human, UniProt P01138 partial chain, limits assumed); experiment: cell-based or functional assay
[2] = target: Recombinant mouse NGF (R&D Systems) (mouse, UniProt P01139 122-241); experiment: cell-based or functional assay
UniProt P01139, sequence (P01139 122-241 limits assumed): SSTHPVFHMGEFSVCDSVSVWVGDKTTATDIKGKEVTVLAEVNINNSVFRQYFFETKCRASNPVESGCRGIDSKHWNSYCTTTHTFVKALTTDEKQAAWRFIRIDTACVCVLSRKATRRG

UniProt P01138, sequence (P01138 122-241 limits assumed): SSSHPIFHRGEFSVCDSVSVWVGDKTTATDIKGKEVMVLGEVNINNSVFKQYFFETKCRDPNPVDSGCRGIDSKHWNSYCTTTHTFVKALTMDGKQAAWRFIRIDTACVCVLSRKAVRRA

B1: TNFR2-Fc_VH#4 (Fc fusion)
chain: LPAQVAFTPYAPEPGSTCRLREYYDQTAQMCCSKCSPGQHAKVFCTKTSDTVCDSCEDSTYTQLWNWVPECLSCGSRCSSDQVETQACTREQNRICTCRPGWYCALSKQEGCRLCAPLRKCRPGFGVARPGTETSDVVCKPCAPGTFSNTTSSTDICRPHQICNVVAIPGNASMDAVCTSTSPTRSMAPGAVHLPQPVSTRSQHTQPTPEPSTAPSTSFLLPMGPSPPAEGSTGD[sequence of human IgG1 Fc not given]GGGGSGGGGSQVQLVQSGAEVKKPGSSVKVSCKASGGTFSTYGISWVRQAPGQGLEWMGGIIPIFDTGNSAQSFQGRVTITADESTSTAYMELSSLRSEDTAVYYCARSSRIYDLNPSLTAYYDMDVWGQGTMVTVSSGGGGSGGGGSGGGGSAQSVLTQPPSVSAAPGQKVTISCSGSSSNIGNNYVSWYQQLPGTAPKLLIYDNNKRPSGIPDRFSGSKSGTSATLGITGLQTGDEADYYCGTWDSSLSAWVFGGGTKLTVL
IC50 (read off the curve), human NGF-induced TF-1 proliferation [1]: ~0.5 nM | IC50 (read off the curve), murine NGF-induced TF-1 proliferation [2]: ~0.1 nM
